{"source": "paper PMC13083723", "about": "(Patterns, 2026)", "note": "The whole screen tested about 5,400 compounds, of which about 190 (3.5%) showed an effect of 50% or more. The list shows a part of the results. Non-standard residues stand in square brackets, D forms with d. Residues, ends and D or L forms follow the SMILES beside them. dTrp(2-Me) = Cc1[nH]c2ccccc2c1C[C@@H](N)C(=O)O"}
{"system": "Vero-E6", "assay": "primary screen, phospholipidosis by LipidTOX staining; higher = more effect of the substance", "settings": "10 µM", "method_in_brief": "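Single-concentration screen at 10 μM, with DMSO 0.1 v/v % and amiodarone 10 μM as controls. Read-out is LipidTOX Red phospholipid staining, which tolerates aldehyde fixation, in Vero-E6 cells.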", "units": {"result_ITMP": "%"}}
{"smiles": "CCOC(=O)[C@@](C)(N)Cc1ccc(O)c(O)c1", "result_ITMP": -8.9}
{"smiles": "Cc1cccc(-c2nc(C(C)(C)C)[nH]c2-c2ccc3nccnc3c2)n1", "result_ITMP": -5.96}
{"smiles": "CCN(CC)CCCC(C)Nc1nc(C)cc(Nc2ccc3nc(C)cc(N)c3c2)n1", "note": "(stereo not shown)", "result_ITMP": 2.84}
{"smiles": "OCc1ccccc1O", "result_ITMP": 0.98}
{"smiles": "CNC(=O)[C@H]1O[C@@H](n2cnc3c(NCc4cccc(I)c4)nc(Cl)nc32)[C@H](O)[C@@H]1O", "result_ITMP": 0.72}
{"smiles": "C=C[C@]1(C)CC[C@@H](C(=C)C)C[C@H]1C(=C)C", "result_ITMP": 18.4}
{"smiles": "O=C(Nc1ccccc1Br)N[C@@H]1CCN(c2ccc(C(F)(F)F)cn2)C1", "result_ITMP": -3.98}
{"smiles": "COC(=O)N1CC[C@@H]2[C@H]1CCC[C@@]2(O)C#Cc1cccc(C)c1", "result_ITMP": 2.06}
{"smiles": "COc1ccc(S(=O)(=O)N(CCO)c2ccccc2CN(C)C/C=C/c2ccc(Cl)cc2)cc1", "result_ITMP": 13.6}
{"smiles": "NS(=O)(=O)c1cccc2c1c([N+](=O)[O-])cc1[nH]c(=O)c(=O)[nH]c12", "result_ITMP": -1.31}
{"smiles": "CN(CC[C@@H](Oc1ccc(-c2ccccc2)cc1)c1ccc(F)cc1)CC(=O)O", "result_ITMP": 0.25}
{"smiles": "O=[N+]([O-])NC1=NCCN1Cc1ccc(Cl)nc1", "result_ITMP": -8.38}
{"smiles": "CCCCCCCCCCCCCCCCCC[S+](CCC)c1ccccc1C(=O)OCC", "note": "(stereo not shown)", "result_ITMP": 9.69}
{"smiles": "CN(C)c1ccc2nc3ccc(N(C)C)cc3[s+]c2c1", "result_ITMP": 5.81}
{"smiles": "CN(C)CC(c1ccc(O)cc1)C1(O)CCCCC1", "note": "(stereo not shown)", "result_ITMP": -2.56}
{"smiles": "NC(=O)CCCCn1ccc(/N=C(\\N)NCC(F)(F)F)n1", "result_ITMP": -0.35}
{"smiles": "O=C(NOCC(O)CO)c1cc(Br)c(F)c(F)c1Nc1ccc(I)cc1F", "note": "(stereo not shown)", "result_ITMP": 4.38}
{"smiles": "COc1ccc2c3c([nH]c2c1)[C@H](CC(C)C)N1C(=O)[C@H](CCC(=O)OC(C)(C)C)NC(=O)[C@@H]1C3", "result_ITMP": -1.42}
{"smiles": "C=CC(=O)Nc1cccc(Nc2nc(Nc3ccc(OCCOC)cc3)ncc2F)c1", "result_ITMP": 32.3}
{"smiles": "CCCOc1ccc(S(=O)(=O)N2CCN(CCO)CC2)cc1-c1nc2c(CCC)cn(CC)c2c(=O)[nH]1", "result_ITMP": 10.7}
{"smiles": "Cc1c(-c2ccccc2F)[nH]c(N)c1C#N", "result_ITMP": -4.53}
{"smiles": "CCC(=O)Nc1cccc(Oc2nc(Nc3ccc(N4CCN(C)CC4)cc3OC)ncc2Cl)c1", "result_ITMP": -5.58}
{"smiles": "CCCCc1ccc(NS(=O)(=O)c2ccc(F)cc2)cc1", "result_ITMP": -5.44}
{"smiles": "Cn1ccc2cc3c(cc21)CCN3C(=O)Nc1cccnc1", "result_ITMP": -2.4}
{"smiles": "O=C(Nc1ccc(Br)cc1)c1cc(Br)cc(Br)c1O", "result_ITMP": -3.53}
{"smiles": "C[C@H](CCC(=O)O)[C@H]1CCC2C3C(CC[C@@]21C)[C@@]1(C)CC[C@@H](O)C[C@H]1C[C@@H]3O", "note": "(stereo partly shown)", "result_ITMP": -2.91}
{"smiles": "CN1CCN(c2nc3ccccc3nc2Cl)CC1", "result_ITMP": 5.5}
{"smiles": "O=C([O-])[C@H](O)[C@@H](O)[C@H](O)[C@H](O)C(O)CO", "note": "(stereo partly shown)", "result_ITMP": -2.51}
{"smiles": "CC(C)c1c(NC(=O)Nc2ccc(Cl)cc2)c(=O)n(-c2ccccc2)n1C", "result_ITMP": 0.5}
{"smiles": "CCC(=O)O[C@]1(C(=O)CO)CC[C@H]2[C@@H]3CCC4=CC(=O)CC[C@]4(C)[C@H]3CC[C@@]21C", "result_ITMP": -0.65}
{"smiles": "O=C(O)Cc1cccc2c(=O)cc(-c3ccccc3)oc12", "result_ITMP": -2.66}
{"smiles": "O=[N+]([O-])c1c(Nc2cc(F)cc(Cl)c2)ccc2nonc12", "result_ITMP": -6.04}
{"smiles": "CCCSc1ccc2nc(NC(=O)OC)[nH]c2c1", "result_ITMP": 6.15}
{"smiles": "Clc1cccc2c1CN(C1=NCCN1)C2", "result_ITMP": -1.86}
{"smiles": "c1ccc(-c2ccc(CNc3nc(-c4ccccn4)nnc3-c3ccccc3)cc2)cc1", "result_ITMP": -2.74}
{"smiles": "CO/N=C(\\C(=O)N[C@@H]1C(=O)N2C(C(=O)OC(C)OC(C)=O)=C(COC(N)=O)CS[C@H]12)c1ccco1", "note": "(stereo partly shown)", "result_ITMP": -4.17}
{"smiles": "CCNC1=Nc2ccc(Cl)cc2C(C)(c2ccccc2)O1", "note": "(stereo not shown)", "result_ITMP": -2.56}
{"smiles": "NNC(=O)CSc1nc2scc(-c3ccccc3)c2c(=O)n1-c1ccccc1", "result_ITMP": -5.94}
{"smiles": "CC[C@@H](C)C[C@@H](C)CCCCCCCCC(=O)N[C@H]1C[C@@H](O)[C@@H](NCCN)NC(=O)[C@@H]2[C@@H](O)CCN2C(=O)[C@H]([C@H](O)CCN)NC(=O)[C@H]([C@H](O)[C@@H](O)c2ccc(O)cc2)NC(=O)[C@@H]2C[C@@H](O)CN2C(=O)[C@H]([C@@H](C)O)NC1=O", "result_ITMP": -8.5}
{"smiles": "COc1ccccc1OCC(O)COC(N)=O", "note": "(stereo not shown)", "result_ITMP": -2.74}
{"smiles": "Cc1[nH]c2ccccc2c1C[C@@H](NC(=O)[C@@H](N)Cc1cnc[nH]1)C(=O)N[C@@H](C)C(=O)N[C@@H](Cc1c[nH]c2ccccc12)C(=O)N[C@H](Cc1ccccc1)C(=O)N[C@@H](CCCCN)C(N)=O", "note": "(H-H[dTrp(2-Me)]AW[dF]K-NH2)", "result_ITMP": 1.15}
{"smiles": "COc1cc(N2CCC(N3CCN(C)CC3)CC2)ccc1Nc1ncc(Cl)c(Nc2ccccc2P(C)(C)=O)n1", "result_ITMP": -0.55}
{"smiles": "CN(C)C(=O)Oc1ccc[n+](C)c1", "result_ITMP": -9.05}
{"smiles": "Cc1cc(N)c2ccccc2[n+]1CCCCCCCCCC[n+]1c(C)cc(N)c2ccccc21", "result_ITMP": -7.35}
{"smiles": "CCNC(=O)/C=C/c1cccc(Br)c1", "result_ITMP": -3.03}
{"smiles": "NC1CCN(c2nc3c(cc2F)c(=O)c(C(=O)O)cn3-c2ccc(F)cc2F)C1", "note": "(stereo not shown)", "result_ITMP": -4.74}
